# Measurements reported in PubChem BioAssay AID1458 (National Center for Advancing Translational Sciences (NCATS), 2008).
# In all, about 210,000 compounds went through this assay and about 5,900 (2.8%) were called active. Inconclusive means that the source gave no clear call. Such entries were picked first, then a sample of the others. Calls come from the whole dose curve; as a rule, active = well fitted activation curve with a large enough effect; inconclusive = small, poorly fitted or top-dose-only effect; inactive = no such curve, though single readings can be large or run the other way. A potency beside an inconclusive call is a rough fit, not a confirmed value.
# Experiment: qHTS Assay for Enhancers of SMN2 Splice Variant Expression; note: nearly all actives have a fitted effect of over 55% in size; for activity change, positive = activation: % of control where 0% means no effect
# Conditions: HEK293 SMN2-luciferase splicing reporter, luminescence, 30-36 h; activity change, positive = activation: at 46.1 µM (top of the series)
# Outline: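 HEK293 cells carry an SMN2 minigene-luciferase reporter in which exon 7 inclusion puts luciferase in frame. Cells were seeded at 2000 cells/well, attached for 10-12 hours, then exposed to compounds for 30-36 hours at 37C before ONE-Glo luminescence.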
# Potency is the fitted concentration of half-maximal effect; tags give direction and shape of the fitted curve.
SMILES,Potency,"activity change, positive = activation"
Cc1ccc(-c2nnn3c2nc(NCc2ccc4c(c2)OCO4)c2ccccc23)cc1,inactive,
O=C(Cn1cnc2ccccc2c1=O)Nc1ccc2c(c1)OCO2,"inconclusive: 11.2 µM [activator, partial curve, poor fit]",
Cc1cccc(N2CCN(Cc3nnc(-c4ccc5c(c4)OCO5)o3)CC2)c1C,inactive,
Cc1cccc(C#Cc2ccccc2)n1,active: 12.6 µM,
O=C(COc1ccc(C(=S)N2CCOCC2)cc1)N1CCCC1,"inconclusive: 5.01 µM [activator, partial curve, poor fit]",
CSCCC(NS(=O)(=O)c1ccc(C)cc1)C(=O)NC1CCCCC1 (centres undefined),"inconclusive: 22.4 µM [activator, single point]",
CCOc1cccc(C(=O)Nc2ccc3oc(Cc4ccc(Cl)cc4)nc3c2)c1,inactive,
Cc1ccc(Cn2ncc(Cl)c(Cl)c2=O)cc1,"inconclusive: 11.2 µM [activator, partial curve, poor fit]",
CC1Cc2ccccc2N1C(=O)CN1CCC(C(N)=O)CC1 (centres undefined),inactive,
CCOC(=O)C(C#N)C(Cc1ccccc1)c1ccco1 (centres undefined),"inconclusive: 3.55 µM [activator, partial curve, poor fit]",
COC(=O)C1=C(C)NC(C)=C(C(=O)OCCSc2ccccc2)C1C (centres undefined),inactive,
Cc1oc(C(=O)O)cc1COc1ccc2c3c(c(=O)oc2c1C)CCCC3,inactive,
CNC(=O)c1ccc2nc(NC(C)=O)sc2c1,"inconclusive: 35.5 µM [activator, single point]",
CCN=C(N)CSS(=O)(=O)O,,inactive: -8.28% [at 9.22 µM]
C[C@H](O)C(=O)Nc1c(I)c(C(=O)NC(CO)CO)c(I)c(C(=O)NC(CO)CO)c1I,inactive,
COC(=O)c1[nH]c2ccccc2c1NC(=O)CN1CCCc2ccccc21,"inconclusive: 1.12 µM [activator, full curve]",
O=C(CNC(=O)c1cccs1)c1ccc([N+](=O)[O-])cc1,"inconclusive: 7.94 µM [activator, partial curve]",
CCCc1nc(Nc2nc3ccccc3o2)nc(C)c1C(=O)OCC,"inconclusive: 2.51 µM [activator, full curve]",
CC(=O)N1CCc2c(sc3c2c(=O)n(CCc2ccccc2)c(=O)n3Cc2cccc(C)c2)C1,inactive,
CCn1c(=O)cc(OCC(=O)NCCCN2CC(C)CC(C)C2)c2ccccc21 (centres undefined),"inconclusive: 15.8 µM [activator, partial curve, poor fit]",
Cn1ncc(Cl)c1C(=O)Nc1ccc(Cl)cn1,"inconclusive: 14.1 µM [activator, single point]",
O=C(Cc1ccc(S(=O)(=O)N2CCOCC2)s1)Nc1ccc(N2CCOCC2)cc1,"inconclusive: 17.8 µM [activator, single point]",
Fc1ccc(N2CCN(/C=C/c3nnnn3-c3ccccc3)CC2)cc1,"inconclusive: 0.141 µM [activator, full curve]",
COc1ccccc1NC(=O)CN1CC(=O)Nc2ccccc21,inactive,
Cc1nn(-c2ccccc2)c(Cl)c1/C=N/NC(=O)c1ccc(NS(=O)(=O)c2cccs2)cc1,active: 12.6 µM,

SMILES,Potency,"activity change, positive = activation"
Cc1cccc(C)c1NC(=O)c1ccc(-c2ccc(Cl)cc2Cl)o1,inactive,
O=C(Oc1ccc(-c2cnc3ccccc3n2)cc1)c1ccco1,"inconclusive: 17.8 µM [activator, single point]",
Clc1ccccc1N=C1NN=C(c2cccs2)CS1,active: 8.91 µM,
COC(=O)C(C)N(C#N)c1nc(C)cc(C)n1 (centres undefined),"inconclusive: 0.447 µM [activator, single point]",
Cc1ccc(C)c(N2CCN(CCCNC(=O)c3nnc(Cc4ccc(F)cc4Cl)o3)CC2)c1,inactive,
COc1ccc(Nc2nc(CC(C)=O)ns2)cc1,active: 14.1 µM,
CCc1ccc(NS(=O)(=O)c2ccc3[nH]cc(C(=O)N4CCCCC4)c(=O)c3c2)cc1,"inconclusive: 1.58 µM [activator, partial curve]",
O=C(N/N=C/c1ccc(Cl)c([N+](=O)[O-])c1)c1ccc2nc[nH]c2c1,inactive,
O=C(NCc1ccco1)C1OCCc2ccccc21 (centres undefined),inactive,
O=C(Nc1ccc(F)cc1)Nc1ccc(Cl)cn1,"inconclusive: 35.5 µM [activator, partial curve]",
O=C(C1CC1)N1CCc2cc(Br)cc(S(=O)(=O)NCc3ccco3)c21,"inconclusive: 35.5 µM [activator, single point]",
CCOc1ccc(N/C=C/C(=O)c2ccc(C)cc2)c([N+](=O)[O-])c1,"inconclusive: 22.4 µM [activator, single point]",
COc1ccc(OCC(=O)N2CCN(C(=O)c3cccc(OC)c3)CC2)cc1,inactive,
O=C(NCCN1C(=O)S/C(=C\c2cccs2)C1=O)[C@H](Cc1ccccc1)N1C(=O)c2ccccc2C1=O,inactive,
O=C(Nc1ccc(C(=O)Oc2ccccc2)c(O)c1)c1ccco1,"inconclusive: 35.5 µM [activator, single point]",
Nc1nc(NCCc2ccc(O)cc2)nc2nc(-c3ccco3)nn12,"inconclusive: 10 µM [activator, partial curve]",
O=C(COc1cccc2ccccc12)N1CCN(c2ccccc2)CC1,inactive,
Cc1ccccc1Nc1c(-c2ccncc2)nc2ccc(Cl)cn12,active: 10 µM,
C/C(=N/NC(=O)c1ccco1)c1cccc(NC(=O)c2ccc(C)s2)c1,"inconclusive: 10 µM [activator, partial curve, poor fit]",
COc1cc2c(c(OC)c1)C(c1cc(OC)c(OC)c(OC)c1)CC(=O)N2 (centres undefined),"inconclusive: 14.1 µM [activator, single point]",
COC(=O)[C@@]1(Cc2ccccc2)[C@H]2c3cc(C(=O)N4CCCC4)n(CCO)c3C[C@H]2CN1C(=O)c1ccccc1,inactive,
O=C(NCCc1c[nH]c2ccccc12)C(=O)NCC1OCCN1S(=O)(=O)c1ccccc1 (centres undefined),inactive,
CCOc1ccccc1C(=O)NN1C(=O)C2CCCCC2C1=O (centres undefined),inactive,
CC(C)n1nnnc1SCC(=O)c1ccc2c(c1)OCCO2,inactive,
